For 14 molecules, binding signal results are on record in publication PMC12136788.

To fix the notation:
B1: chr9:6012816:6012917:-|CDS|ENSG00000137040|unk|FALSE|unique (ssRNA)
RNA: GGGAGUUCUACAGUCCGACGAUCGGGAUUGUGCAUAUUUGAUGACAUCAUAGAGCACUGCAGUCCAACUUCAUUUAAAUAUGUAGAAUAUUUUCGGUGGCCAAUGCUACUAAAUAUGCGAGAUAACAACCCUGAAGUCAGGCACAACAGAGGAUUGAGCAUCA
B2: chr10:43184366:43184487:+|3pUTR|ENSG00000169826|unk|FALSE|bound_elsewhere (ssRNA)
RNA: GGGAGUUCUACAGUCCGACGAUCUAGUUUAUUUGAGCCAGCUCUAUCAGGGUCUUCCCAUGGUGGUUCAGAAUAGAUGAGCAUAGCAUGGUUUUGUUUGUUUUUGCUUUCAAUUUUCUAAUUUGGCAUGGAUCCAUAUGUAUUCAACAGAGGAUUGAGCAUCA
B3: chr12:65247554:65247656:+|3pUTR|ENSG00000174106|unk|FALSE|unique (ssRNA)
RNA: GGGAGUUCUACAGUCCGACGAUCCAGUAUUUAAUUUGUUUCAGUAAACUUACUUUAUUACUGUUUAUGAUUUCAGAUAAAAAUAGUUGCUGAGUAAAUUUUACUUGUAAUCUACAAUUGGCUUUUUAAAAAUAACCUGUUGAUCAACAGAGGAUUGAGCAUCA
B4: chr10:92030471:92030572:+|3pUTR|ENSG00000095564|unk|FALSE|unique (ssRNA)
RNA: GGGAGUUCUACAGUCCGACGAUCUAUUUUUUUAUUAACUAUUUAUUUGCUAGUUCCAUAAACCAGCUCUUUAACAUAGCUUAUAGUAAUUGAUAUUUUCUUAGAAUAAGUACAGAGCAAUAUAUCAUUAAAGGGCUAUGAAGGCAACAGAGGAUUGAGCAUCA
B5: ENSG00000124766:be:win_3351|3pUTR|ENSG00000124766|bound_else_gene|NA|bound_elsewhere_windowed (ssRNA)
RNA: GGGAGUUCUACAGUCCGACGAUCCCACCCUCCGGCCCCCGUCUUGUAAAAAGGGGAGGAGAAUUAGCCAAACACUGUAAGCUUUUAAGAAAAACAAAGUUUUAAACGAAAUACUGCUCUGUCCAGAGGCUUUAAAACUGGUGCCAACAGAGGAUUGAGCAUCA
B6: ENSG00000151612:stop:overlap|stop_codon|ENSG00000151612|stop_codon|NA|stop_codon (ssRNA)
RNA: GGGAGUUCUACAGUCCGACGAUCCAGGCCUGUUGGAGAAGGAAGCCAGCAGUGAGGGGGAUUGCAAAGUAGAGAGAGGUUGGUAGAACUGUGGACUGUGAAGAGAUCGAGAAUAGCACAGUUAACUAGGCAUUUGCCUUCGGCCAACAGAGGAUUGAGCAUCA
B7: ENSG00000198589:be:win_7151|CDS|ENSG00000198589|bound_else_gene|NA|bound_elsewhere_windowed (ssRNA)
RNA: GGGAGUUCUACAGUCCGACGAUCCUUGGGCCAAAACCUCAGAAGAAUUUGUUCACAUAAACAGAUUGGCCCUGGAGAGUGAAUUUGUUUCCUGCCAGCUUCACCAAUGGAUUGAUCUCAUUUUUGGCUAUAAACAGCAAGGACCAACAGAGGAUUGAGCAUCA
B8: chr8:88167829:88167930:-|CDS|ENSG00000156103|msi1|total|mutant (ssRNA)
RNA: GGGAGUUCUACAGUCCGACGAUCCUUUGAUGUGUGGCAGAAUGUAACUCCUCUGACAUUUGAAGAAGUUCCCUACAGUGAAUCCGAAAAUGGCAAACGUGAUGUGGAUAUAACCAUUAUUUUUGCAUCUGGUUUCCAUGGGGACAACAGAGGAUUGAGCAUCA
B9: chr1:32364632:32368550:-|three_prime_utr|ENSG00000160058|control|control|control (ssRNA)
RNA: GGGAGUUCUACAGUCCGACGAUCGCUCAGACCCACAACAUUGGUCAUCAGCAGGCUGCACUUUUCCUCAGUUCCAGGGUGGAUAGAGGGUCAAGUUCUUGACCUUAGCUCUGUAUCAAAAUUGCCUGAGAAACUGCUUAAGAACAACAGAGGAUUGAGCAUCA
B10: chr10:24620413:24620514:-|CDS|ENSG00000107863|msi1|total|mutant (ssRNA)
RNA: GGGAGUUCUACAGUCCGACGAUCGUGCUAAUGAAGUAUUGUCCAAGAAGUGCAUCUCAAGGAGCACUGACGUCUCCAUCUGUCCGUUUCCGUAAUCACCGAACUCGUUCAUGGGAUUAUAUUGAGGGACAGGAUGAAACCUUACAACAGAGGAUUGAGCAUCA
B11: chr8:38210141:38210254:+|CDS|ENSG00000156735|unk|FALSE|unique (ssRNA)
RNA: GGGAGUUCUACAGUCCGACGAUCGCUGAGCCUCAGCUGUAUGGUAAUGCCACCAGUGACCAUCCCAACAAUCAAGAUCAAAGUAGCAGUCUUCCUGAAGAAUGUGUACCUUCAGAUGAAAGUACUCCUCCGAGUAUUAAAAAACAACAGAGGAUUGAGCAUCA
B12: ENSG00000124766:be:win_2251|3pUTR|ENSG00000124766|bound_else_gene|NA|bound_elsewhere_windowed (ssRNA)
RNA: GGGAGUUCUACAGUCCGACGAUCACGGUCAAACUGAAAUGGAUUUGCACGUUGGGGAGCUGGCGGCGGCGGCUGCUGGGCCUCCGCCUUCUUUUCUACGUGAAAUCAGUGAGGUGAGACUUCCCAGACCCCGGAGGCGUGGAGCAACAGAGGAUUGAGCAUCA
B13: chr22:28629602:28629705:-|CDS|ENSG00000100154|unk|total|mutant (ssRNA)
RNA: GGGAGUUCUACAGUCCGACGAUCAUUGUUCUGUAUAAUGAAGCCCUGGCUGUUGACCCUCAGAACUGCAUCUUAUACAGCAACCGAUCUGCAGCCUACAUGAAAAUCCAGCAGUAUGACAAGGCACUGGAUGAUGCAAUCAAACAACAGAGGAUUGAGCAUCA
B14: chr5:154898482:154898583:-|CDS|ENSG00000082516|unk|total|mutant (ssRNA)
RNA: GGGAGUUCUACAGUCCGACGAUCUUUGGCCAAAAAGGGGGAUGCGGCAUCACUCCGAACGGCUGCAGAGUUGGCUGCCAUCGCCGGAGAGGAUGAGUUGUCUGCUUCCCUGGCUCUCAGAUGUGCCCAAGAGCUGCUUCUGGCCAACAGAGGAUUGAGCAUCA

The list shows a part of the results.

The target in the test is T1, UNK ZnF1-6 (called full-length) (human, UniProt Q9C0B0 30-357).
T1 sequence: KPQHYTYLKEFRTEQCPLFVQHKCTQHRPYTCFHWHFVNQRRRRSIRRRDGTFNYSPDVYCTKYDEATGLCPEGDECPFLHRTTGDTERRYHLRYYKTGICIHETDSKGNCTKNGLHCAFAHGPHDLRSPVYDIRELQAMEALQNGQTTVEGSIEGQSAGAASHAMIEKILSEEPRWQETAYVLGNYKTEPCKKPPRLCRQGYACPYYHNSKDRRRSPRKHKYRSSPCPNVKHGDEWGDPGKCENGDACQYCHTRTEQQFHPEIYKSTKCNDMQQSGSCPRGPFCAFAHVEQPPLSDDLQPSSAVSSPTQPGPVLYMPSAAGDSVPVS
Nature of the test: nsRBNS (natural sequence RNA bind-n-seq); RBNS binding buffer (assumed for nsRBNS): 25 mM Tris pH 7.5, 150 mM KCl, 3 mM MgCl2, 0.01% Triton X-100, 500 ug/ml BSA, 20 U/ml SUPERase-In, 4 C; UNK is unkempt and MSI1 is Musashi-1; names of the RNAs are library labels; protein concentration not given here; high values mean tight binding.
B1: the binding signal was 0.424 enrichment R.

In the case of B2, the binding signal came out at 3.79 enrichment R. In turn, B3 yielded a binding signal of 0.413 enrichment R. Consider B4, for which the binding signal worked out at 34.3 enrichment R. With B5 the figure was 0.901 enrichment R. With B6 the figure was 3.25 enrichment R.

The molecule B7 registered a binding signal of 0.468 enrichment R. In the case of B8 it was 0.368 enrichment R. In the case of B9 it was 0.834 enrichment R. Molecule B10 returned a binding signal of 0.335 enrichment R. B11 registered a binding signal of 0.486 enrichment R. With B12 the figure was 0.775 enrichment R; with B13, 0.409 enrichment R.

As for B14, the binding signal was determined as 0.652 enrichment R.
